In PubChem BioAssay AID624417 (National Center for Advancing Translational Sciences (NCATS), 2012):
Screen size: about 410,000 compounds; about 6,400 (1.6%) were called active. The shares of active, inactive and inconclusive entries below differ from those in the screen. Calls follow the shape of the dose curve; as a rule, active = well fitted inhibition curve with a large enough effect; inconclusive = small, poorly fitted or top-dose-only effect; inactive = no such curve, though single readings can be large or run the other way. A potency beside an inconclusive call is a rough fit, not a confirmed value.

Each molecule was assayed against Glucagon-like peptide 1 receptor (Homo sapiens) (UniProt P43220) (assay: qHTS of GLP-1 Receptor Inverse Agonists (Inhibition Mode)). Settings: HEK293 GLP-1R CRE-luciferase, luminescence, 24 h, GLP-1R form is constitutively active; series mostly up to 38.3 µM.
Chain of UniProt P43220 (P43220 whole entry, looked up): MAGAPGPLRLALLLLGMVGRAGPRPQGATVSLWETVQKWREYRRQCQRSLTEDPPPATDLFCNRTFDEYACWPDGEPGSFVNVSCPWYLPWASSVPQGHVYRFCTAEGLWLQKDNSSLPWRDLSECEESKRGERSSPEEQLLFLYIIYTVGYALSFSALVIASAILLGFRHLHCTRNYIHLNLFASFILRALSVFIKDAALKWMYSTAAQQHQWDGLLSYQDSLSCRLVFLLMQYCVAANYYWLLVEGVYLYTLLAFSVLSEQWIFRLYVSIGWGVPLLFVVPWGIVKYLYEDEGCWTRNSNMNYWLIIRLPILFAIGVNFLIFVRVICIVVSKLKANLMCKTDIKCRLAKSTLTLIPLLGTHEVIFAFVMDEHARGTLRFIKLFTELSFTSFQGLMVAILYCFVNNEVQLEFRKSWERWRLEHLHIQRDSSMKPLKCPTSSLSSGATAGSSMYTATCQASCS
Procedure, shortened: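 Inverse agonism was detected as reduced cAMP-driven luciferase luminescence after 24 h compound treatment. The cells were HEK293 clones expressing constitutively active human GLP-1R with the reporter. Reporter-only and GPR119 cell lines served as counterscreen controls.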
Also: nearly all actives have a fitted effect of over 55% in size.
Potency is read from the fitted curve at half-maximal effect; tags tell the direction and shape of the fitted curve.

Potency, inconclusive:
CCc1cccc(C)c1NC(=O)CN1CCN(S(=O)(=O)c2ccc(C(C)(C)C)cc2)CC1 28.2 µM [inhibitor, single point]
O=C(Nc1ccc(O)c(-c2nc3ccccc3o2)c1)C1(c2ccc(Cl)cc2)CCCC1 6.31 µM [inhibitor, partial curve, poor fit]
O=C(CSc1nnc(COc2ccccc2)o1)NC1CC2CCC1C2 (configuration not stated) 12.6 µM [inhibitor, single point]
O=C(N/N=C/c1c[nH]c2ccccc12)c1sc2ccccc2c1Cl 8.91 µM [inhibitor, single point]
S=C1N(c2ccccc2)C(c2ccccc2)N2CCCN12 (configuration not stated) 5.01 µM [inhibitor, partial curve]
COc1cccc(-c2nc3c(c(SCC(=O)N4CCOCC4)n2)Cc2c(CO)cnc(C)c2O3)c1 6.31 µM [inhibitor, partial curve, poor fit]
CCc1ccc(CN(C)CC(=O)Nc2ccc3c(c2)CCC3)cc1 28.2 µM [inhibitor, single point]
O=C(NCCCN1CCCC1)[C@H](CSCc1ccccc1)N1Cc2ccccc2C1=O 10 µM [inhibitor, partial curve, poor fit]
COc1ccc(S(=O)(=O)c2c(Nc3cccc(C)c3C)sc(C(=O)c3ccccc3)c2N)cc1 5.62 µM [inhibitor, full curve, poor fit]
CC(C)N(CCCNC(=O)C1CCC(CNS(=O)(=O)c2ccccc2)CC1)Cc1ccccc1 (configuration not stated) 7.08 µM [inhibitor, partial curve, poor fit]
Cc1ccc(Nc2nc(-c3ccncc3)cs2)cc1 1.78 µM [inhibitor, full curve]
COc1cccc(CC(=O)NCCCSc2ccccc2)c1 5.62 µM [inhibitor, partial curve, poor fit]
O=C(C#Cc1ccccc1)Nc1cccc(F)c1 5.62 µM [inhibitor, full curve, poor fit]
Cc1ccc(-n2ncc(C(=O)NCCN3CCc4ccccc4C3)c2C2CCN(C(=O)OC(C)(C)C)CC2)cc1C 17.8 µM [inhibitor, partial curve, poor fit]
Cc1ccc(-c2nn(-c3cc(N4CCNCC4)ccc3[N+](=O)[O-])c(=O)c3ccccc23)cc1 10 µM [inhibitor, single point]
CC(=O)N1CCOc2ccc(S(=O)(=O)NCCc3cccc(C)c3)cc21 2.82 µM [inhibitor, full curve]
O=C(COn1nnc2ccc(S(=O)(=O)N3CCOCC3)cc21)Nc1c(F)c(F)c(F)c(F)c1F 12.6 µM [inhibitor, partial curve, poor fit]
O=C(Nc1cccc(F)c1)C1CCCN(S(=O)(=O)c2cccc3cccnc23)C1 (configuration not stated) 7.08 µM [inhibitor, partial curve, poor fit]
O=c1[nH]nc(Cc2ccccn2)c2ccccc12 0.501 µM [inhibitor, full curve, poor fit]
O=[N+]([O-])c1ccccc1S(=O)c1ccccc1[N+](=O)[O-] 4.47 µM [inhibitor, full curve]
Cc1[nH]nc2c1C1(C(=O)N(Cc3ccc(Cl)cc3)c3ccccc31)C(C#N)=C(N)O2 (configuration not stated) 8.91 µM [inhibitor, partial curve, poor fit]
O=C(c1nnsc1S(=O)c1ccc(Cl)cc1)N1CCOCC1 (configuration not stated) 7.94 µM [inhibitor, partial curve, poor fit]
C=CCn1c(SCC(=O)N2CCc3ccccc3C2)nc2sc(CC)cc2c1=O 11.2 µM [inhibitor, partial curve, poor fit]
COc1ccc(CNC(=O)N2CCN(c3ccc(F)cc3)CC2)cc1Cl 3.55 µM [inhibitor, partial curve, poor fit]
CC(=O)Oc1cccc(C(=O)Nc2ccc(NC(=O)c3cccs3)cc2)c1 15.8 µM [inhibitor, single point]
COc1ccc(NC(=O)CSc2nc(-c3cc(OC)c(OC)c(OC)c3)[nH]c2-c2ccc(F)cc2)cc1 10 µM [inhibitor, partial curve, poor fit]
Cc1cc(OCC(=O)NC2CCCCC2)ccc1Cl 12.6 µM [inhibitor, single point]
C=CCC(CC(O)COCCC)C(=O)NNC(=S)Nc1ccccc1 (configuration not stated) 1.78 µM [inhibitor, full curve, poor fit]
CC1C/C(=N\NC(N)=S)c2cc(Cl)ccc2S1 (configuration not stated) 2.51 µM [inhibitor, full curve, poor fit]
COc1ccc(Cl)cc1C=CC=Nc1ccccc1O 28.2 µM [inhibitor, single point]
CC1CCCC(C)N1C(=O)COC(=O)c1ccc(S(=O)(=O)N(C)c2ccccc2)cc1 (configuration not stated) 11.2 µM [inhibitor, single point]
O=C(CSc1nc(-c2ccccc2)cn1-c1ccccc1F)Nc1ccc(F)cc1 28.2 µM [inhibitor, single point]
COc1cccc(CN(C)CC2CCCN(CCc3ccc(Cl)cc3)C2)c1OC (configuration not stated) 22.4 µM [inhibitor, single point]
COc1ccc(CCNC(=O)COc2coc(CN3c4ccccc4CC3C)cc2=O)cc1OC (configuration not stated) 11.2 µM [inhibitor, single point]
O=C(Nc1ccc2c(c1)OCCO2)c1ccccc1F 10 µM [inhibitor, partial curve]
COC(=O)C1C2CCC(C2)C1C(=O)OCC(=O)c1ccc(C)cc1 (configuration not stated) 2.51 µM [inhibitor, full curve, poor fit]
O=C(NCCN1CCCC(O)C1)c1cc(COc2ccc(F)cc2Cl)on1 (configuration not stated) 10 µM [inhibitor, single point]
Nc1ccc2c(Cl)cc(Cl)cc2c1 7.94 µM [inhibitor, partial curve, poor fit]
COc1cccc(C2c3[nH]c4ccccc4c3CCN2CCCn2cccn2)c1 (configuration not stated) 11.2 µM [inhibitor, partial curve, poor fit]
COc1ccc(NC(=O)C2CCC(N3C(=O)C4CCCCC4C3=O)CC2)cc1 (configuration not stated) 22.4 µM [inhibitor, single point]
COc1ccc(CCNC(=O)Cn2cnc3scc(-c4ccccc4)c3c2=O)cc1OC 20 µM [inhibitor, single point]
CCOC(=O)[C@]12Cc3c(cc(OC)c(OC)c3OC)[C@H]1N(C1CCCCC1)C(=O)c1cc(OC)ccc12 20 µM [inhibitor, single point]
CSc1ccc(C(O)c2ncc(-c3cccc(OCc4ccccc4)c3)[nH]2)cc1 (configuration not stated) 22.4 µM [inhibitor, single point]
NC(Cc1ccc(C(F)(F)F)cc1)c1csc(Nc2cc(Oc3ccccc3)ncn2)n1 (configuration not stated) 28.2 µM [inhibitor, single point]
Cc1ccc(CN2CCN(/N=C/c3cc([N+](=O)[O-])ccc3Cl)CC2)cc1 7.08 µM [inhibitor, partial curve, poor fit]
COc1ccc(NS(=O)(=O)c2ccc(NC(=O)c3ccc(N(C)S(C)(=O)=O)cc3)cc2)cc1 15.8 µM [inhibitor, partial curve, poor fit]
CCCCOc1ccc(C(=O)NN2C(=O)NC3(CCCCC3)C2=O)cc1OC 31.6 µM [inhibitor, single point]

Potency, active:
COc1ccc(-c2ccc(/C=N/NC(=O)Cc3nnc(N)s3)o2)cc1Cl 11.2 µM
CCCOC(=O)c1cccc(NC(=O)c2c(-c3ccccc3Cl)noc2C)c1 8.91 µM

Potency, inactive:
O=C(COC(=O)CNC(=O)c1ccc(Br)cc1)Nc1nnc(-c2ccccc2)o1
Cc1cc(C)c(C(=O)CSc2nnc(N)s2)cc1C
CCC(CO)Oc1cc(NC(=O)c2cccc([N+](=O)[O-])c2)c2ncn(C(C)C)c2c1 (configuration not stated)
CCN(c1ccccc1)S(=O)(=O)c1c(C)nc2scc(C)n2c1=O
Cc1cccc(C)c1NC(=O)CN1CCN(CCCC(c2ccc(F)cc2)c2ccc(F)cc2)CC1
O=C(Nc1cccc2ccccc12)N1CCN(c2ccccc2)CC1
Cn1c(N)c(C(=O)COC(=O)c2cc(-c3ccccc3)nc3ccccc23)c(=O)n(Cc2ccccc2)c1=O
CCC[C@@H](CN1CCC[C@H]1CN1C(N)=NC[C@H]1CC(C)C)N1C[C@@H](Cc2ccccc2)N(CCCC2CCCC2)C1=N
Nc1nc(-c2cccc(F)c2)cs1
COc1ccc(CNS(=O)(=O)c2cc3c(cc2Cl)N(C(C)=O)CCO3)cc1
CC1CCN(C(c2ccccc2)c2sc3nc(-c4ccco4)nn3c2O)CC1 (configuration not stated)
Cc1cccc(Cn2c(CNS(=O)(=O)c3ccc(C(C)C)cc3)nc3cccnc32)c1
Cc1ccc(C)c(Cn2c(O)c(N=NC(=S)Nc3ccccc3F)c3ccccc32)c1
